41 compounds from ChEMBL document CHEMBL4888484, “Replenishing the malaria drug discovery pipeline: Screening and hit evaluation of the MMV Hit Generation Library 1 (HGL1) against asexual blood stage Plasmodium falciparum ,using a nano luciferase reporter read-out” (2022) can be followed below.

As a reminder, the % Inhibition is the relative decrease from the control value, in per cent.

In all, about 150,000 compounds went through this assay and about 540 (0.36%) showed an effect of 50% or more. The list shows a part of the results.

In the test the test system is Plasmodium falciparum. Briefly: Primary screen in NF54 nanoGlo assay, in single point, at 2uM, 72h; a lower Z score goes with more inhibition. The test is classed as functional, Erythrocyte. The settings on record: timepoint 72 hour.
Take `COCCN1CCC[C@H](c2nc(Cc3ccccc3OC)n[nH]2)C1`: the “% Inhibition” value is -7% and the Z score turned out to be 1.25.
As to `C[C@@H](c1nc(-c2ccncc2)nn1C1CCCCC1)N1CCN(C)CC1`, the “% Inhibition” value is -5% and the Z score is reported as 0.99.
In the same order, the values of `O=C(c1ccccc1Cl)N1C[C@H]2CC[C@@H](C1)N(Cc1ccccc1)C2=O` are -3% and 0.44.
Regarding `Cn1cnnc1CCC(=O)NCCC1=CC[C@H]2C[C@@H]1C2(C)C`, the “% Inhibition” value is -11% and the Z score stood at 1.13.
On to `O=C1CN(c2nc(-c3cccnc3)nc3c2CNC3)CCN1`, for which the “% Inhibition” value is -15% and the Z score amounted to 1.5.
Turning to `O=C(c1cccc(OC(F)F)c1)N1CCn2c(n[nH]c2=O)C1`, the “% Inhibition” value is given as -15% and the Z score came to 1.39.
Take `COc1ccc(C(=O)N2CC(=O)N(c3cccc(Cl)c3)C[C@@H]2C)o1`: the “% Inhibition” value is recorded as -17% and the Z score came to 2.34.
As for `N#Cc1c(N2C(=O)C3ON(c4ccccc4)C(c4ccccc4)C3C2=O)sc2c1CCCC2` (configuration not stated), the “% Inhibition” value came out at 0% and the Z score is recorded as -0.03.
On to `CCCN1CCN(Cc2oc3ccccc3c2C)[C@H]2CS(=O)(=O)C[C@H]21`, for which the “% Inhibition” value is on record as 1% and the Z score was -0.22.
As for `N#Cc1ccccc1CN1C[C@@H](CO)[C@H](NC(=O)c2cccnc2)C1`, the “% Inhibition” value was -12% and the Z score is reported as 2.11.
On to `O=C(Nc1ccc(C(F)(F)F)cc1)N1CC2COCC(C2)C1`, for which the “% Inhibition” value is listed as -6% and the Z score is listed as 0.87.
On the same counts, the results for `CN(C)c1nc(CNS(=O)(=O)c2ccc(-n3cccn3)cc2)nc(N2CCCCC2)n1` are 11% and -1.42.
Consider `CCCC1CCC(C(=O)Nc2ccc3c(c2)C(=O)N(C)C3=O)CC1` (configuration not stated), for which the “% Inhibition” value turned out to be 31% and the Z score is listed as -3.56.
For the compound `Cc1ccc(CS(=O)(=O)Nc2ccccc2C(=O)N2CCCCC2)cc1`, the “% Inhibition” value was -8% and the Z score was 1.06.
`CC(C)(C)CN(CC(C)(C)C)C(=O)NC1CCOCC1`: the “% Inhibition” value is listed as 7% and the Z score was -1.02.
As for `COc1ncccc1NC(=O)N1CC(O)CC1c1ccc(F)c(F)c1` (configuration not stated), the “% Inhibition” value stood at 4% and the Z score is on record as -0.37.
On the same counts, the results for `CN(Cc1nc2ccccc2c(=O)[nH]1)c1nc(N)nc2[nH]cnc12` are 8% and -1.12.
For `O=C(Cn1c(C2CC2)nc2ccccc21)N1CCC[C@H](n2cccn2)C1`, the “% Inhibition” value is given as -6% and the Z score is reported as 0.79.
Take `CCOc1nc(Nc2ccc(F)cc2)nc(N2CCN(c3ccc(OC)cc3)CC2)n1`: the “% Inhibition” value was -7% and the Z score is given as 1.
`O=C(NC1CC2CCC1C2)c1cncn1-c1ccc(-c2cc(C(F)(F)F)cc(C(F)(F)F)c2)cc1` (configuration not stated): the “% Inhibition” value was -6% and the Z score was 1.12.
In the same order, the values of `CCOc1ccccc1C(=O)N[C@H]1CCOC[C@@H]1O` are 13% and -1.55.
For `CC(C)[C@H]1C(=O)NCCN1Cc1ccccc1OCCN1CCOCC1`, the “% Inhibition” value is on record as -15% and the Z score is given as 1.63.
As for `CC(C)c1nnc2ccc(NC(=O)[C@@H]3CCCO3)cn12`, the “% Inhibition” value is -14% and the Z score amounted to 1.44.
As to `Cc1nn(C)c2nc(N3CC[C@H](c4ccccc4F)C3)sc12`, the “% Inhibition” value was -2% and the Z score was found to be 0.29.
As to `O=C(c1coc(-c2ccccc2Cl)n1)N1CC(CC(F)F)C1`, the “% Inhibition” value was -16% and the Z score is 2.25.
In the same order, the values of `CC(C)c1cc(C(=O)N2CCC[C@H](c3nc4ccccc4s3)C2)n(C)n1` are -9% and 0.87.
On to `O=C(CCCc1ccccc1)N1CCO[C@H](c2cccnc2)C1`, for which the “% Inhibition” value is on record as -4% and the Z score amounted to 0.71.
Consider `Cc1ccc(CC2CN(C(=O)NCc3noc(C4CC4)n3)C2)cc1`, for which the “% Inhibition” value amounted to 1% and the Z score is given as -0.12.
In the same order, the values of `COc1ccc2c(c1)-c1onc(C(=O)NC3CCCC3)c1CC2` are -8% and 1.22.
As for `CC(=O)c1ccc(S(=O)(=O)N2CCC(C)(C(=O)NCc3ccc4c(c3)OCO4)CC2)cc1`, the “% Inhibition” value was determined as 34% and the Z score is -0.76.
In the same order, the values of `O=C(Cc1noc2ccccc12)N1CC(Oc2nc3c(Cl)cccc3s2)C1` are -9% and 1.01.
On to `OC[C@]12COc3ccccc3[C@H]1CN(Cc1ccc(F)cc1Cl)C2`, for which the “% Inhibition” value came to 3% and the Z score was -0.46.
For `O=C(Nc1ccc(Cl)c(Cl)c1)c1c(-c2ccc(Cl)cc2)cn2ccccc12`, the “% Inhibition” value is listed as 5% and the Z score is given as -0.58.
In the same order, the values of `COc1ccc(NC(=O)Cc2c(C)nc3nc(-c4cccc(C)c4)nn3c2C)c(OC)c1` are -2% and 0.18.
In the same order, the values of `O=C(NCc1ccccc1CN1CCCCC1)c1nn(-c2ccccc2)c(=O)c2ccccc12` are -4% and 0.67.
With `CN1Cc2cc(-c3cccc(C(=O)O)c3)ccc2NC1=O`, the “% Inhibition” value was -6% and the Z score turned out to be 0.77.
For `N#Cc1cc(N2CC(CO)C2)nc2ccc(Cl)cc12`, the “% Inhibition” value is recorded as -2% and the Z score was 0.18.
In the case of `COc1ccnc(Oc2cnc3ccccc3c2)n1`, the “% Inhibition” value is -9% and the Z score turned out to be 0.96.
On to `O=C1CCC2(CCN(Cc3ncon3)CC2)CN1CCc1cccnc1`, for which the “% Inhibition” value is reported as -25% and the Z score came to 2.32.
With `CCOc1cccc(-c2noc(Cn3c(=O)n(-c4cc(C)ccc4C)c(=O)c4ccccc43)n2)c1`, the “% Inhibition” value was -9% and the Z score amounted to 0.97.
`Cc1ccc(Oc2cc3c(cc2S(=O)(=O)N2CCOCC2)C(=O)Nc2ccc(C)cc2O3)cc1`: the “% Inhibition” value was -11% and the Z score is 1.52.
